Results taken from article PMC9911399, “Two distinct binding modes provide the RNA-binding protein RbFox with extraordinary sequence specificity”.
Substitutions are numbered along the chain they refer to; changes in the protein carry UniProt numbers. This is one part of the list.

T1: RBFOX1 RRM (Homo sapiens, UniProt Q9NWB1 109-208)
T1 sequence: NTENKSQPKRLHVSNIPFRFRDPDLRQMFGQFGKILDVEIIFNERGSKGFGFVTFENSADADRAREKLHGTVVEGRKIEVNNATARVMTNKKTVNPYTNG

B1: GACCCAA (DNA:RNA)
RNA: GGGAGACCGGAAUUCAGAUUGUCCGACCCAAUUAAAUCCCGUCGUAGCCACCA
DNA 1: CAATCTGAATTCCGGTCTCCC
DNA 2: TGGTGGCTACGACGGGATT
B2: ACUCCUC (DNA:RNA)
RNA: B1 RNA with G25A, A26C, C27U, A30U, A31C
DNA 1: CAATCTGAATTCCGGTCTCCC
DNA 2: TGGTGGCTACGACGGGATT
B3: GGUACUU (DNA:RNA)
RNA: B1 RNA with A26G, C27U, C28A, A30U, A31U
DNA 1: CAATCTGAATTCCGGTCTCCC
DNA 2: TGGTGGCTACGACGGGATT
B4: CGCUAUG (DNA:RNA)
RNA: B1 RNA with G25C, A26G, C28U, C29A, A30U, A31G
DNA 1: CAATCTGAATTCCGGTCTCCC
DNA 2: TGGTGGCTACGACGGGATT
B5: GCAUUUC (DNA:RNA)
RNA: B1 RNA with A26C, C27A, C28U, C29U, A30U, A31C
DNA 1: CAATCTGAATTCCGGTCTCCC
DNA 2: TGGTGGCTACGACGGGATT
B6: CAAAUUU (DNA:RNA)
RNA: B1 RNA with G25C, C27A, C28A, C29U, A30U, A31U
DNA 1: CAATCTGAATTCCGGTCTCCC
DNA 2: TGGTGGCTACGACGGGATT
B7: AACCUUG (DNA:RNA)
RNA: B1 RNA with G25A, C29U, A30U, A31G
DNA 1: CAATCTGAATTCCGGTCTCCC
DNA 2: TGGTGGCTACGACGGGATT
B8: AUGACGG (DNA:RNA)
RNA: B1 RNA with G25A, A26U, C27G, C28A, A30G, A31G
DNA 1: CAATCTGAATTCCGGTCTCCC
DNA 2: TGGTGGCTACGACGGGATT
B9: UAUCUUA (DNA:RNA)
RNA: B1 RNA with G25U, C27U, C29U, A30U
DNA 1: CAATCTGAATTCCGGTCTCCC
DNA 2: TGGTGGCTACGACGGGATT
B10: GUACACA (DNA:RNA)
RNA: B1 RNA with A26U, C27A, C29A, A30C
DNA 1: CAATCTGAATTCCGGTCTCCC
DNA 2: TGGTGGCTACGACGGGATT
B11: GUCUAAC (DNA:RNA)
RNA: B1 RNA with A26U, C28U, C29A, A31C
DNA 1: CAATCTGAATTCCGGTCTCCC
DNA 2: TGGTGGCTACGACGGGATT
B12: AGUCGAC (DNA:RNA)
RNA: B1 RNA with G25A, A26G, C27U, C29G, A31C
DNA 1: CAATCTGAATTCCGGTCTCCC
DNA 2: TGGTGGCTACGACGGGATT
B13: UAAUGGA (DNA:RNA)
RNA: B1 RNA with G25U, C27A, C28U, C29G, A30G
DNA 1: CAATCTGAATTCCGGTCTCCC
DNA 2: TGGTGGCTACGACGGGATT
B14: CCUGAGG (DNA:RNA)
RNA: GGGAGACCGGAAUUCAGAUUGUCCCCUGAGGUUAAAUCCCGUCGUAGCCACCA
DNA 1: CAATCTGAATTCCGGTCTCCC
DNA 2: TGGTGGCTACGACGGGATT
B15: CGGCUCA (DNA:RNA)
RNA: B1 RNA with G25C, A26G, C27G, C29U, A30C
DNA 1: CAATCTGAATTCCGGTCTCCC
DNA 2: TGGTGGCTACGACGGGATT
B16: UGGUUGA (DNA:RNA)
RNA: B14 RNA with C25U, C26G, U27G, G28U, A29U, G31A
DNA 1: CAATCTGAATTCCGGTCTCCC
DNA 2: TGGTGGCTACGACGGGATT
B17: UUGGUUA (DNA:RNA)
RNA: B14 RNA with C25U, C26U, U27G, A29U, G30U, G31A
DNA 1: CAATCTGAATTCCGGTCTCCC
DNA 2: TGGTGGCTACGACGGGATT
B18: GCGAAAU (DNA:RNA)
RNA: B14 RNA with C25G, U27G, G28A, G30A, G31U
DNA 1: CAATCTGAATTCCGGTCTCCC
DNA 2: TGGTGGCTACGACGGGATT
B19: GUUCGCG (DNA:RNA)
RNA: B14 RNA with C25G, C26U, G28C, A29G, G30C
DNA 1: CAATCTGAATTCCGGTCTCCC
DNA 2: TGGTGGCTACGACGGGATT
B20: CAAGUCG (DNA:RNA)
RNA: B14 RNA with C26A, U27A, A29U, G30C
DNA 1: CAATCTGAATTCCGGTCTCCC
DNA 2: TGGTGGCTACGACGGGATT

Target: T1, RBFOX1 RRM
Assay: EMSA; HiTS-Eq, 1 nM pool, 10 min; buffer printed only for the single-RNA assays: 10 mM Tris pH 7.5, 150 mM NaCl, 3.4 mM EDTA, 0.001% NP-40, 30 C
Conditions: tags: His6 N-terminal (pET28a); label: 5' 32P
Summary of the method: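 These values rest on relative association constants, computed from read-count changes of each RNA species versus the control reaction and normalised to the cognate motif. Reads came from free RNA recovered by 8% native PAGE after purified RbFox RRM (wild type or mutant) at increasing concentrations was equilibrated for 10 min in 50 µL with 1 nM of a 5′-radiolabelled pool with 7 randomized nucleotides and DNA-annealed flanks.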

Row | Binder | binding signal
1 | B1 | 0.00299 KA relative to UGCAUGU
2 | B2 | 0.00144 KA relative to UGCAUGU
3 | B3 | 0.00377 KA relative to UGCAUGU
4 | B4 | 0.0146 KA relative to UGCAUGU
5 | B5 | 0.0113 KA relative to UGCAUGU
6 | B6 | 0.00138 KA relative to UGCAUGU
7 | B7 | 0.00832 KA relative to UGCAUGU
8 | B8 | 0.0124 KA relative to UGCAUGU
9 | B9 | 0.00824 KA relative to UGCAUGU
10 | B10 | 0.00135 KA relative to UGCAUGU
11 | B11 | 0.00757 KA relative to UGCAUGU
12 | B12 | 0.00992 KA relative to UGCAUGU
13 | B13 | 0.00218 KA relative to UGCAUGU
14 | B14 | 0.0125 KA relative to UGCAUGU
15 | B15 | 0.00697 KA relative to UGCAUGU
16 | B16 | 0.0251 KA relative to UGCAUGU
17 | B17 | 0.0126 KA relative to UGCAUGU
18 | B18 | 0.0104 KA relative to UGCAUGU
19 | B19 | 0.0138 KA relative to UGCAUGU
20 | B20 | 0.004 KA relative to UGCAUGU
